Laboratory results from paper PMC6078952.
These are yes or no findings as the source states them, for the method shown. Some results given as binding are weak or reduced against the parent protein; the word gives no strength.

Sequences of proteins named here, by UniProt entry; tags and fusion partners are left off. A change or cut given only in a name is not applied to a line headed by its entry. A line that says so, or that is headed by a name, gives the form on record, which may keep a tag or linker. Residues count along the entry.
Anthrax toxin receptor 1 (Tumor endothelial marker 8, TEM-8) (Q9H6X2, form named): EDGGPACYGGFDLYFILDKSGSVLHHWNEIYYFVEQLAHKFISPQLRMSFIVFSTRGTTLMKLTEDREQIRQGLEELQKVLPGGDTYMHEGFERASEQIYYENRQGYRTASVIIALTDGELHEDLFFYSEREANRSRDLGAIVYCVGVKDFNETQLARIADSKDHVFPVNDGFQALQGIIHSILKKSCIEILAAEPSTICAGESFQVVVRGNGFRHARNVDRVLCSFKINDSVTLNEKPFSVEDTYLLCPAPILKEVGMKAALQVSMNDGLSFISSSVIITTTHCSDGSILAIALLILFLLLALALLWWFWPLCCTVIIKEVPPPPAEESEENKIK
Lysyl oxidase propeptide (LOX-PP) (Pro24Leu) (P28300, form named): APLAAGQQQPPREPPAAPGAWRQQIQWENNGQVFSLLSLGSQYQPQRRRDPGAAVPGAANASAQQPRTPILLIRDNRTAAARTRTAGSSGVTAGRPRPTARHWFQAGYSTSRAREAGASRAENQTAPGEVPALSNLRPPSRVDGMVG
UniProt Q05793, residues 22-3707: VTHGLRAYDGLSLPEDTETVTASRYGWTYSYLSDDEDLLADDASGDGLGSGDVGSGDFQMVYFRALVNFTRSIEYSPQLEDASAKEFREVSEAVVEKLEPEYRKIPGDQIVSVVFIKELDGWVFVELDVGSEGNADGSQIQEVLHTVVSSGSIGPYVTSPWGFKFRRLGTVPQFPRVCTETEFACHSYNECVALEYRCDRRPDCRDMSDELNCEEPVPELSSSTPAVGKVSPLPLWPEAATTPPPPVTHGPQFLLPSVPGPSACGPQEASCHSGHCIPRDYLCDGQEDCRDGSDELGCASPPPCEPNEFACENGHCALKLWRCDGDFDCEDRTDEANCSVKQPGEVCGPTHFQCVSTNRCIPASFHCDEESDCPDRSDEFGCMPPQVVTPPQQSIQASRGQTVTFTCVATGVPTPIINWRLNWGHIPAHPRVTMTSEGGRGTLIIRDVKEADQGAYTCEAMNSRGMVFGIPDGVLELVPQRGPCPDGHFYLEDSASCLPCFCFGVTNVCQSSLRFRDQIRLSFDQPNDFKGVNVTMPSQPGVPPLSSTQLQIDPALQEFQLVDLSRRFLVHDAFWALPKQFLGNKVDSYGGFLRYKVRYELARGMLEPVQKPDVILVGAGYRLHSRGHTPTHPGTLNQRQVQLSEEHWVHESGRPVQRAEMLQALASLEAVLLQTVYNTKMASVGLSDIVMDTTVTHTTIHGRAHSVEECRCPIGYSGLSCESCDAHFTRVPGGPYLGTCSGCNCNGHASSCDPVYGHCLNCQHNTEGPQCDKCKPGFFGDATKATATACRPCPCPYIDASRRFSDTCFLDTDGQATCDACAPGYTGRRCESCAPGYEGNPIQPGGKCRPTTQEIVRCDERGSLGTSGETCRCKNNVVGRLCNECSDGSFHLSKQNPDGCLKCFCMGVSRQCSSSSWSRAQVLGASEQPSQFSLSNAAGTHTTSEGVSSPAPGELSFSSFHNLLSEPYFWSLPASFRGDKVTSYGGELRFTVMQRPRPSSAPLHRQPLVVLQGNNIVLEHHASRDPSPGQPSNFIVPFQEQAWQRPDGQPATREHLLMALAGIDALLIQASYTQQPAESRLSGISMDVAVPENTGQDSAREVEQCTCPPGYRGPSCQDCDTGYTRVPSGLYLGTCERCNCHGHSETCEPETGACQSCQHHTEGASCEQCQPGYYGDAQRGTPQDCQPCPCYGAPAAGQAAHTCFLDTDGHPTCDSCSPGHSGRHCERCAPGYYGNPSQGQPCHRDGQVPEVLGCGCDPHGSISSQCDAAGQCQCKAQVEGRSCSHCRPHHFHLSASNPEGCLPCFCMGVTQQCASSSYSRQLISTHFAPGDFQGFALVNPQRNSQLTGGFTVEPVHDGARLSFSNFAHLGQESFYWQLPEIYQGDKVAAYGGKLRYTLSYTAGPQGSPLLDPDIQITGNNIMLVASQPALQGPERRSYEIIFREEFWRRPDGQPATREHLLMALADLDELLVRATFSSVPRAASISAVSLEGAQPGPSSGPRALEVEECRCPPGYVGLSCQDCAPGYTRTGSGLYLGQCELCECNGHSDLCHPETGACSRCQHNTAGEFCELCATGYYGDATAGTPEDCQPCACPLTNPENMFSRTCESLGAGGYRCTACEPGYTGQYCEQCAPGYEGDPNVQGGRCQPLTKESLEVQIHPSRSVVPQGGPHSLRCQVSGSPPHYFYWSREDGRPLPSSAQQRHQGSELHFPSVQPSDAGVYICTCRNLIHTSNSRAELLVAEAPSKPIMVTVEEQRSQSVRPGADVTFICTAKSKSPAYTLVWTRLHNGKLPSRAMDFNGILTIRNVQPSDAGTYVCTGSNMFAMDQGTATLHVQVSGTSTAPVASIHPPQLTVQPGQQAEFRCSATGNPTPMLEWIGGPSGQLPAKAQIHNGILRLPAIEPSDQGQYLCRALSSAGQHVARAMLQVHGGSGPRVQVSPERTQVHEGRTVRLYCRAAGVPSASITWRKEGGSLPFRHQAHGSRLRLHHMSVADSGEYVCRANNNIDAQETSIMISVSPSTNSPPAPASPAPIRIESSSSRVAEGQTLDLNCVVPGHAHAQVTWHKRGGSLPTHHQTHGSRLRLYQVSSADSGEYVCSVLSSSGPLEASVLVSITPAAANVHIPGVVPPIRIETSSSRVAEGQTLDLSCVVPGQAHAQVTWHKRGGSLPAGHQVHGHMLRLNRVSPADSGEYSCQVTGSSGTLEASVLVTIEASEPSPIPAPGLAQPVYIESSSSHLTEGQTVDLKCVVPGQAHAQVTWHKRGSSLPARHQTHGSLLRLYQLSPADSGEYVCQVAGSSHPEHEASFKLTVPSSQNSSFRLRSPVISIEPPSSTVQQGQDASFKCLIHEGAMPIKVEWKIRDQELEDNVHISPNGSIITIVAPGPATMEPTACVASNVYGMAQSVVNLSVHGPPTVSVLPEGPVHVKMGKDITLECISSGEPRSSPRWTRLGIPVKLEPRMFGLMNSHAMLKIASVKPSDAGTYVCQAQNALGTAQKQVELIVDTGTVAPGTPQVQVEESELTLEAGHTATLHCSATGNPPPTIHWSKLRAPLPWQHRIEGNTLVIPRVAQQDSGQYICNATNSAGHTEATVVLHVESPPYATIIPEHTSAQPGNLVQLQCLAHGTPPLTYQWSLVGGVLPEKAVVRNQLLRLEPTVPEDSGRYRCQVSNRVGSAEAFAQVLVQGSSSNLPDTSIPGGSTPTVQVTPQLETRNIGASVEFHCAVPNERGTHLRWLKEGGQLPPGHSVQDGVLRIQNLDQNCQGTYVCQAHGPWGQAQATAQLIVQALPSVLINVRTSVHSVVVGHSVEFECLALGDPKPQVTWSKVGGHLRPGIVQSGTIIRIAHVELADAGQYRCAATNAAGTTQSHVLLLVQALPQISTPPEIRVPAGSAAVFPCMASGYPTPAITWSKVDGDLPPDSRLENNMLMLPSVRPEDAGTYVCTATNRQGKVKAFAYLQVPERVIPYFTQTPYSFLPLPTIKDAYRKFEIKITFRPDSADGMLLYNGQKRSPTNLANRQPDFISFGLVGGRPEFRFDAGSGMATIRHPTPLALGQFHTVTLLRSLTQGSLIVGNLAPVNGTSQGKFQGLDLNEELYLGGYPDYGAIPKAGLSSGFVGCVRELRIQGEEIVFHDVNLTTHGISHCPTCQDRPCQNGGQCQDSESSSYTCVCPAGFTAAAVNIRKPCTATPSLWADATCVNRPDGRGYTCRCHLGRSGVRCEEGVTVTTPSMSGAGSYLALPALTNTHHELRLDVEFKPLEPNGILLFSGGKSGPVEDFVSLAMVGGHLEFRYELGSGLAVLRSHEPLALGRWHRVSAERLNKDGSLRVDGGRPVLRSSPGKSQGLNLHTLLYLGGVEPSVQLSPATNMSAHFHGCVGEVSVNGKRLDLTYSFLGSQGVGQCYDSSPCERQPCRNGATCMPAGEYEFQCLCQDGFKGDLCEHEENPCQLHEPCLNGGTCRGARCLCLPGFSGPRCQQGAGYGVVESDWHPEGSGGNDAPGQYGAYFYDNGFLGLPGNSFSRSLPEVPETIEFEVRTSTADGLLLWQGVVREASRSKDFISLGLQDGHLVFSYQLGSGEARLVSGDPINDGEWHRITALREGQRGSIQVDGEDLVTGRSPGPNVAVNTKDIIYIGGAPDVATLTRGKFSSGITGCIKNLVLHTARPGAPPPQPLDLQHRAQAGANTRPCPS
Endostatin, mutant Arg1598Ala, Arg1710Ala (P39060, form named): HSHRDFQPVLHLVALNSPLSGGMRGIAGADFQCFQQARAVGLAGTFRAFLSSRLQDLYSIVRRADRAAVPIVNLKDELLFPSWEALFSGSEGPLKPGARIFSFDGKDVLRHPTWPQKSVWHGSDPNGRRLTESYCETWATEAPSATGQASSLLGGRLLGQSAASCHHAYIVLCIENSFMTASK
UniProt P12109, residues 593-1028: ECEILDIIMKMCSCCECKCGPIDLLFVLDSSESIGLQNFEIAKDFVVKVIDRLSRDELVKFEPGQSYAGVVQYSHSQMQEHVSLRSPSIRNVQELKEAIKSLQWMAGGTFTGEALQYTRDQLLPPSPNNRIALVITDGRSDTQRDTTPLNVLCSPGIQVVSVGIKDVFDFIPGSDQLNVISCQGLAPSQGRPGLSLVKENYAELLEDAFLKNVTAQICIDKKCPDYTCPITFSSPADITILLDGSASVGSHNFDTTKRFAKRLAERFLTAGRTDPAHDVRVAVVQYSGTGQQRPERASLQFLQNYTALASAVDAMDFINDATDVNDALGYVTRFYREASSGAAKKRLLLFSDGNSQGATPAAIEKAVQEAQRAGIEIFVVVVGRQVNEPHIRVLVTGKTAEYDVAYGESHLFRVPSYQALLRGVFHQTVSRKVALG
UniProt P55066, residues 23-637: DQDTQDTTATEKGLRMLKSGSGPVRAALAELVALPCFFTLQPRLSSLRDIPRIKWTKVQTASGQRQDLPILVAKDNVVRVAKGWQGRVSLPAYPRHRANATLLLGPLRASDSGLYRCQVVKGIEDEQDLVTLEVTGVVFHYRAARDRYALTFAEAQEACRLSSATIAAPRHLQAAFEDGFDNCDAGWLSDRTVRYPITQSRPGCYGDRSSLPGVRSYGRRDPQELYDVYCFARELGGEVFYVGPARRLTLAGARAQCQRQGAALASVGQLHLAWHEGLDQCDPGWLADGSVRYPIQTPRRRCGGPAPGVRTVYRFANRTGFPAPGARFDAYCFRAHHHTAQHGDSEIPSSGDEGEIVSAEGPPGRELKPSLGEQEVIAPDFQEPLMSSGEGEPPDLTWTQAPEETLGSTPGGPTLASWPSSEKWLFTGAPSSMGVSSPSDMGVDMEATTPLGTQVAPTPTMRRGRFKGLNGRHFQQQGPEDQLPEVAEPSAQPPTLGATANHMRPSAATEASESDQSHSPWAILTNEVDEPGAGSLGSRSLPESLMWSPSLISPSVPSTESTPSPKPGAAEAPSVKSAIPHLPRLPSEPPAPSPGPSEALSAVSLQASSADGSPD
UniProt P01375, residues 77-233: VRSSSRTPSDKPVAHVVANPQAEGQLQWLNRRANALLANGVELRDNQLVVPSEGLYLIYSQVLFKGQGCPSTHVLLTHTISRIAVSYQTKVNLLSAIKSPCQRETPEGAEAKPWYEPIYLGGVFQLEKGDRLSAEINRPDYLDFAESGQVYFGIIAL

Legend:
[1] = target: Anthrax toxin receptor 1 (Tumor endothelial marker 8, TEM-8) (UniProt Q9H6X2); experiment: SPR; both purified
[2] = target: T1, Procollagen C-proteinase enhancer 1 (PCPE-1) (UniProt Q15113); experiment: SPR; SPR imaging (SPRi, Biacore Flexchip): partners spotted in triplicate on a bare gold chip at 0.06 to 1 mg/ml; purified LOX-PP injected at 2 µM and recirculated for 20 min; PBS with 0.05% Tween 20, 25 °C; both purified
T1 sequence: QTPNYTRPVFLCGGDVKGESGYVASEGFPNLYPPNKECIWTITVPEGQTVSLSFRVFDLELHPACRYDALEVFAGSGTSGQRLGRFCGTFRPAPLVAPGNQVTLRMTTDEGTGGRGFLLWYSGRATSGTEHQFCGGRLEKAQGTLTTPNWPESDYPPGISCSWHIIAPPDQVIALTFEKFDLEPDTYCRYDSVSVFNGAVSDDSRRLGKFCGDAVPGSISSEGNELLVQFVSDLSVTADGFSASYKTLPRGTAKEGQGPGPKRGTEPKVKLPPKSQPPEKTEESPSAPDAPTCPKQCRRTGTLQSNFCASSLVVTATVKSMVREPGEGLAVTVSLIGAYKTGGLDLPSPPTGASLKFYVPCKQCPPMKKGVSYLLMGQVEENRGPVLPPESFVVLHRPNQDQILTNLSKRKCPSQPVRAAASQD

Glypican 2 = target: T2, Glypican 2 (UniProt Q8N158); experiment: as above
T2 sequence: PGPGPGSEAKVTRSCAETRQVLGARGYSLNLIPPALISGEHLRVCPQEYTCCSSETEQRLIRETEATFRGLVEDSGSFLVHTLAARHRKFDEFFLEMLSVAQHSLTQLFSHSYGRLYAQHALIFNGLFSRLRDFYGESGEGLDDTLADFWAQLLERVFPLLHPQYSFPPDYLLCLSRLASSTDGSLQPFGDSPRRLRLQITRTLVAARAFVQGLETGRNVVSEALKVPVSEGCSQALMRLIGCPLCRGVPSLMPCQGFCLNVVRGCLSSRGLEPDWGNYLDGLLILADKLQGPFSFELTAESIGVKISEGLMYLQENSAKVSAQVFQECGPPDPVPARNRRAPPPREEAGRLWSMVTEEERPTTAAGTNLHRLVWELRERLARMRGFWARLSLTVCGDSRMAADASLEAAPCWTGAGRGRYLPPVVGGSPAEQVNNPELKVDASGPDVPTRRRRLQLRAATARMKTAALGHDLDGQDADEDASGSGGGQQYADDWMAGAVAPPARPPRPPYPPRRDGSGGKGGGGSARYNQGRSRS

[3] = target: Lysyl oxidase propeptide (LOX-PP) (Pro24Leu) (human) (UniProt P28300); experiment: as above
Perlecan = Perlecan (UniProt Q05793); experiment: as above
[4] = target: Endostatin, mutant Arg1598Ala, Arg1710Ala (UniProt P39060); experiment: as above
[5] = target: Collagen VI (vWF2-3 domain) (UniProt P12109); experiment: as above
[6] = target: T3, Angiopoietin-like protein 4 (AngPTL-4), mutant Lys163Ala, Arg164Ala (UniProt Q9BY76); experiment: as above
T3 sequence: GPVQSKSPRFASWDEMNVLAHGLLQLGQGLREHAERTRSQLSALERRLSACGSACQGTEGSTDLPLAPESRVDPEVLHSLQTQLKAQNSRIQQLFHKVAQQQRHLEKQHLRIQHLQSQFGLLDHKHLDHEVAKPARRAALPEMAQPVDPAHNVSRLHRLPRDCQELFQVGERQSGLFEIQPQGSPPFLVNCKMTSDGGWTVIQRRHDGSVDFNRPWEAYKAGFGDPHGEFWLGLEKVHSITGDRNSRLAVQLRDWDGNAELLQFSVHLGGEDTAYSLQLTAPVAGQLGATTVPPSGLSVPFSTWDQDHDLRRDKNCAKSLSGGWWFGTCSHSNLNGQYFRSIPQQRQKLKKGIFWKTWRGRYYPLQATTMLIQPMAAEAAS

Neurocan = Neurocan (UniProt P55066); experiment: as above
[7] = target: Tumor necrosis factor α (TNFα) (UniProt P01375); experiment: as above

Lysyl oxidase propeptide (LOX-PP) (Pro24Leu) (from UniProt P28300 22-168) (domain or fragment)
binding [1]: binds | binding [2]: no binding (tested: 2 µM) | binding (Glypican 2): no binding (tested: 2 µM) | binding [3]: no binding (tested: 2 µM) | binding (Perlecan): no binding (tested: 2 µM) | binding [4]: no binding (tested: 2 µM) | binding [5]: no binding (tested: 2 µM) | binding [6]: no binding (tested: 2 µM) | binding (Neurocan): no binding (tested: 2 µM) | binding [7]: no binding (tested: 2 µM)
